# From paper PMC9911399, “Two distinct binding modes provide the RNA-binding protein RbFox with extraordinary sequence specificity”
# Where a chain is given by its changes, count along the chain named. The list shows a part of the results.
# T1: RBFOX1 RRM RbFoxmut (Fox-RRM*) (Homo sapiens, UniProt Q9NWB1 109-208, R118D;E147R;N151S;E152T)
# T1 sequence: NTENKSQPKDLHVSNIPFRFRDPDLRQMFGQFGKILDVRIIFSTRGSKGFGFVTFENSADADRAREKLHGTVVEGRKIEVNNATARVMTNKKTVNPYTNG
# B1: GUGAGGU (DNA:RNA)
# RNA: GGGAGACCGGAAUUCAGAUUGUCCGUGAGGUUUAAAUCCCGUCGUAGCCACCA
# DNA 1: CAATCTGAATTCCGGTCTCCC
# DNA 2: TGGTGGCTACGACGGGATT
# B2: AUGACCU (DNA:RNA)
# RNA: B1 RNA with G25A, G29C, G30C
# DNA 1: CAATCTGAATTCCGGTCTCCC
# DNA 2: TGGTGGCTACGACGGGATT
# B3: AGACUCC (DNA:RNA)
# RNA: GGGAGACCGGAAUUCAGAUUGUCCAGACUCCUUAAAUCCCGUCGUAGCCACCA
# DNA 1: CAATCTGAATTCCGGTCTCCC
# DNA 2: TGGTGGCTACGACGGGATT
# B4: CGACUCU (DNA:RNA)
# RNA: B3 RNA with A25C, C31U
# DNA 1: CAATCTGAATTCCGGTCTCCC
# DNA 2: TGGTGGCTACGACGGGATT
# B5: GCUCCCG (DNA:RNA)
# RNA: B3 RNA with A25G, G26C, A27U, U29C, C31G
# DNA 1: CAATCTGAATTCCGGTCTCCC
# DNA 2: TGGTGGCTACGACGGGATT
# B6: UUAUAAU (DNA:RNA)
# RNA: B1 RNA with G25U, G27A, A28U, G29A, G30A
# DNA 1: CAATCTGAATTCCGGTCTCCC
# DNA 2: TGGTGGCTACGACGGGATT
# B7: UACUGUU (DNA:RNA)
# RNA: B1 RNA with G25U, U26A, G27C, A28U, G30U
# DNA 1: CAATCTGAATTCCGGTCTCCC
# DNA 2: TGGTGGCTACGACGGGATT
# B8: CGUAAAU (DNA:RNA)
# RNA: B1 RNA with G25C, U26G, G27U, G29A, G30A
# DNA 1: CAATCTGAATTCCGGTCTCCC
# DNA 2: TGGTGGCTACGACGGGATT
# B9: GUGCGGA (DNA:RNA)
# RNA: B1 RNA with A28C, U31A
# DNA 1: CAATCTGAATTCCGGTCTCCC
# DNA 2: TGGTGGCTACGACGGGATT
# B10: AAUAGAU (DNA:RNA)
# RNA: B1 RNA with G25A, U26A, G27U, G30A
# DNA 1: CAATCTGAATTCCGGTCTCCC
# DNA 2: TGGTGGCTACGACGGGATT
# B11: UUCCUCC (DNA:RNA)
# RNA: B3 RNA with A25U, G26U, A27C
# DNA 1: CAATCTGAATTCCGGTCTCCC
# DNA 2: TGGTGGCTACGACGGGATT
# B12: AAGUCCU (DNA:RNA)
# RNA: B3 RNA with G26A, A27G, C28U, U29C, C31U
# DNA 1: CAATCTGAATTCCGGTCTCCC
# DNA 2: TGGTGGCTACGACGGGATT
# B13: GGCAAGC (DNA:RNA)
# RNA: B1 RNA with U26G, G27C, G29A, U31C
# DNA 1: CAATCTGAATTCCGGTCTCCC
# DNA 2: TGGTGGCTACGACGGGATT
# B14: UGCUCUG (DNA:RNA)
# RNA: B3 RNA with A25U, A27C, C28U, U29C, C30U, C31G
# DNA 1: CAATCTGAATTCCGGTCTCCC
# DNA 2: TGGTGGCTACGACGGGATT
# B15: UCCUCAG (DNA:RNA)
# RNA: GGGAGACCGGAAUUCAGAUUGUCCUCCUCAGUUAAAUCCCGUCGUAGCCACCA
# DNA 1: CAATCTGAATTCCGGTCTCCC
# DNA 2: TGGTGGCTACGACGGGATT
# B16: GCCAUCU (DNA:RNA)
# RNA: B1 RNA with U26C, G27C, G29U, G30C
# DNA 1: CAATCTGAATTCCGGTCTCCC
# DNA 2: TGGTGGCTACGACGGGATT
# B17: CCGAGCC (DNA:RNA)
# RNA: B1 RNA with G25C, U26C, G30C, U31C
# DNA 1: CAATCTGAATTCCGGTCTCCC
# DNA 2: TGGTGGCTACGACGGGATT
# B18: CGCGCCU (DNA:RNA)
# RNA: B3 RNA with A25C, A27C, C28G, U29C, C31U
# DNA 1: CAATCTGAATTCCGGTCTCCC
# DNA 2: TGGTGGCTACGACGGGATT
# B19: AAGCACC (DNA:RNA)
# RNA: B3 RNA with G26A, A27G, U29A
# DNA 1: CAATCTGAATTCCGGTCTCCC
# DNA 2: TGGTGGCTACGACGGGATT
# B20: GAUCGUU (DNA:RNA)
# RNA: B1 RNA with U26A, G27U, A28C, G30U
# DNA 1: CAATCTGAATTCCGGTCTCCC
# DNA 2: TGGTGGCTACGACGGGATT
# B21: UCUCCGG (DNA:RNA)
# RNA: B15 RNA with C27U, U28C, A30G
# DNA 1: CAATCTGAATTCCGGTCTCCC
# DNA 2: TGGTGGCTACGACGGGATT
# B22: CUGAGAG (DNA:RNA)
# RNA: B1 RNA with G25C, G30A, U31G
# DNA 1: CAATCTGAATTCCGGTCTCCC
# DNA 2: TGGTGGCTACGACGGGATT
# B23: UUUCCUU (DNA:RNA)
# RNA: B1 RNA with G25U, G27U, A28C, G29C, G30U
# DNA 1: CAATCTGAATTCCGGTCTCCC
# DNA 2: TGGTGGCTACGACGGGATT
# B24: GCCCAUG (DNA:RNA)
# RNA: B15 RNA with U25G, U28C, C29A, A30U
# DNA 1: CAATCTGAATTCCGGTCTCCC
# DNA 2: TGGTGGCTACGACGGGATT
# B25: CUCUGCC (DNA:RNA)
# RNA: B3 RNA with A25C, G26U, A27C, C28U, U29G
# DNA 1: CAATCTGAATTCCGGTCTCCC
# DNA 2: TGGTGGCTACGACGGGATT
# B26: CCCUGUG (DNA:RNA)
# RNA: B15 RNA with U25C, C29G, A30U
# DNA 1: CAATCTGAATTCCGGTCTCCC
# DNA 2: TGGTGGCTACGACGGGATT
# B27: GCGUAGG (DNA:RNA)
# RNA: B1 RNA with U26C, A28U, G29A, U31G
# DNA 1: CAATCTGAATTCCGGTCTCCC
# DNA 2: TGGTGGCTACGACGGGATT
# B28: AUCAGGA (DNA:RNA)
# RNA: B1 RNA with G25A, G27C, U31A
# DNA 1: CAATCTGAATTCCGGTCTCCC
# DNA 2: TGGTGGCTACGACGGGATT
# B29: GUGUCGA (DNA:RNA)
# RNA: B1 RNA with A28U, G29C, U31A
# DNA 1: CAATCTGAATTCCGGTCTCCC
# DNA 2: TGGTGGCTACGACGGGATT
# B30: UAGGAAC (DNA:RNA)
# RNA: B15 RNA with C26A, C27G, U28G, C29A, G31C
# DNA 1: CAATCTGAATTCCGGTCTCCC
# DNA 2: TGGTGGCTACGACGGGATT
# B31: UGGCAAU (DNA:RNA)
# RNA: B3 RNA with A25U, A27G, U29A, C30A, C31U
# DNA 1: CAATCTGAATTCCGGTCTCCC
# DNA 2: TGGTGGCTACGACGGGATT
# Biological target: T1, RBFOX1 RRM RbFoxmut (Fox-RRM*)
# Assay: EMSA; HiTS-Eq, 1 nM pool, 10 min; buffer printed only for the single-RNA assays: 10 mM Tris pH 7.5, 150 mM NaCl, 3.4 mM EDTA, 0.001% NP-40, 30 C
# Conditions: tags: His6 N-terminal (pET28a); label: 5' 32P
# In short: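 Purified RbFox RRM, wild type or mutant, was incubated for 10 min in 50 µL with 1 nM of a 5′-radiolabelled RNA pool carrying 7 randomized nucleotides, whose flanks were annealed to DNA oligonucleotides, over a series of increasing protein concentrations. Unbound RNA was resolved on 8% native PAGE, cut out, reverse-transcribed, barcoded by PCR and sequenced on an Illumina HiSeq 2500. Relative association constants were derived from changes in read counts for each RNA species versus the control reaction and normalised to the cognate motif.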
row,Binder,binding signal
1,B1,0.102 KA relative to UGCAUGU
2,B2,0.074 KA relative to UGCAUGU
3,B3,0.036 KA relative to UGCAUGU
4,B4,0.0595 KA relative to UGCAUGU
5,B5,0.0959 KA relative to UGCAUGU
6,B6,0.0698 KA relative to UGCAUGU
7,B7,0.0836 KA relative to UGCAUGU
8,B8,0.0806 KA relative to UGCAUGU
9,B9,0.111 KA relative to UGCAUGU
10,B10,0.0813 KA relative to UGCAUGU
11,B11,0.0527 KA relative to UGCAUGU
12,B12,0.0777 KA relative to UGCAUGU
13,B13,0.0546 KA relative to UGCAUGU
14,B14,0.107 KA relative to UGCAUGU
15,B15,0.107 KA relative to UGCAUGU
16,B16,0.0632 KA relative to UGCAUGU

row,Binder,binding signal
1,B17,0.105 KA relative to UGCAUGU
2,B18,0.0872 KA relative to UGCAUGU
3,B19,0.0612 KA relative to UGCAUGU
4,B20,0.0918 KA relative to UGCAUGU
5,B21,0.0632 KA relative to UGCAUGU
6,B22,0.0844 KA relative to UGCAUGU
7,B23,0.0655 KA relative to UGCAUGU
8,B24,0.107 KA relative to UGCAUGU
9,B25,0.348 KA relative to UGCAUGU
10,B26,0.138 KA relative to UGCAUGU
11,B27,0.102 KA relative to UGCAUGU
12,B28,0.0805 KA relative to UGCAUGU
13,B29,0.101 KA relative to UGCAUGU
14,B30,0.0532 KA relative to UGCAUGU
15,B31,0.0495 KA relative to UGCAUGU
